Reference: the supplement of paper PMC7826260
The list shows a part of the results. Cleavage of a single-stranded DNA pool by Rep nickase domains was read by sequencing (3 µM enzyme, 1 h, 37 °C); shown is the middle of each 90-letter strand. Numbers give uncut DNA relative to the enzyme-free pool, as log2; strong cutting gives strongly negative numbers. There is no active / inactive call. Counts are relative to all reads; where an enzyme cuts many sequences, the uncut ones exceed 0.

Legend:
Experiment in all cases: uncleaved DNA left, log2 of reads against the no-enzyme library (log2 ratio); higher = less cleavage (more negative = more Rep cleavage of the k-mer); sequences stand for … in CTCGTCCG…ACCGGAGA
[1] = system: T1, Rep nickase domain of Muscovy duck circovirus
T1 sequence (residues 1-111, tag not shown): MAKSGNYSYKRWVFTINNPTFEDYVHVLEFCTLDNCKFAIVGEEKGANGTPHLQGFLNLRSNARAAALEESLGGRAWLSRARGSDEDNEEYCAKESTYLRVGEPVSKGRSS
Experimental: (§1)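 A pool of 90-nt single-stranded DNAs with seven random bases just before the constant AC of the nick site (name = the seven bases) was cut by 3 µM recombinant His6-SUMO-tagged Rep nickase domain (300 nM DNA, 50 mM HEPES pH 8.0, 50 mM NaCl, 1 mM MnCl2, 1 h, 37 °C, three replicates). Uncut DNA was amplified and sequenced.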

[2] = system: T2, Rep nickase domain of banana bunchy top virus
T2 sequence (residues 1-94, tag not shown): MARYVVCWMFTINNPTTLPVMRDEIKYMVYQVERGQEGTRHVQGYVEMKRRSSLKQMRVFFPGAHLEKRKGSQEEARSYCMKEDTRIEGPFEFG
Experimental: as §1

[3] = system: T3, Rep nickase domain of cabbage leaf curl virus
T3 sequence (residues 1-116, tag not shown): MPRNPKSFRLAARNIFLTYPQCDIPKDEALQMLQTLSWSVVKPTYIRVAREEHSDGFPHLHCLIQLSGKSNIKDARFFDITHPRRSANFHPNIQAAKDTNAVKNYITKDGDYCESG
Experimental: as §1

[4] = system: T4, Rep nickase domain of chickpea chlorotic dwarf virus
T4 sequence (residues 1-124, tag not shown): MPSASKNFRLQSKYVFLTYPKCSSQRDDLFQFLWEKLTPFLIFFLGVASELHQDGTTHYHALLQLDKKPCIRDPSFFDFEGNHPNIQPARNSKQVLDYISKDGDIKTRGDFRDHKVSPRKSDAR
Experimental: as §1

[5] = system: T5, Rep nickase domain of faba bean necrotic yellows virus
T5 sequence (residues 1-98, tag not shown): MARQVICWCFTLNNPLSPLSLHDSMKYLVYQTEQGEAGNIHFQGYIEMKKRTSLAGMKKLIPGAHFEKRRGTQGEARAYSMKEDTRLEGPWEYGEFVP
Experimental: as §1

[6] = system: T6, Rep nickase domain of maize striate mosaic virus
T6 sequence (residues 1-117, tag not shown): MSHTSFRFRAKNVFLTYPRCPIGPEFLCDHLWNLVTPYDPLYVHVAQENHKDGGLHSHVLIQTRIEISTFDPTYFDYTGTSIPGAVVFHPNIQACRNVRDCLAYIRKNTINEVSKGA
Experimental: as §1

[7] = system: T7, Rep nickase domain of porcine circovirus 2
T7 sequence (residues 2-116, tag not shown): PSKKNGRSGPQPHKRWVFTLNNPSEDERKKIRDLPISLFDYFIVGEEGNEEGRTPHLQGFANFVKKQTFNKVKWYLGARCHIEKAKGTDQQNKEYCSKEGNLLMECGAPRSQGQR
Experimental: as §1

[8] = system: T8, Rep nickase domain of tomato golden mosaic virus
T8 sequence (residues 1-124, tag not shown): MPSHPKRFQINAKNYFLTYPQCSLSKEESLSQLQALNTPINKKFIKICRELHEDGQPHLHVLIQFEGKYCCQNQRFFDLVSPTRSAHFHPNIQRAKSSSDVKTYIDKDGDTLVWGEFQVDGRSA
Experimental: as §1

[9] = system: T9, Rep nickase domain of tomato yellow leaf curl virus
T9 sequence (residues 1-136, tag not shown): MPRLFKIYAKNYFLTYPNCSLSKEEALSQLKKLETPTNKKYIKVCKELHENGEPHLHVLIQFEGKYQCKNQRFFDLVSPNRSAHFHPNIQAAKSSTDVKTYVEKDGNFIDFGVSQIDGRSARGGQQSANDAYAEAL
Experimental: as §1

[10] = system: T10, Rep nickase domain of wheat dwarf virus
T10 sequence (residues 1-137, tag not shown): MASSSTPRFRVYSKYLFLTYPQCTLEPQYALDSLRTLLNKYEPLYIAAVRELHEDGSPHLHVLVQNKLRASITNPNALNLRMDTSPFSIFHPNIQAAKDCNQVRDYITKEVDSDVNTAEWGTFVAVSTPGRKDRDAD
Experimental: as §1

Sequence	uncleaved DNA left (log2) [1]	uncleaved DNA left (log2) [2]	uncleaved DNA left (log2) [3]	uncleaved DNA left (log2) [4]	uncleaved DNA left (log2) [5]	uncleaved DNA left (log2) [6]	uncleaved DNA left (log2) [7]	uncleaved DNA left (log2) [8]	uncleaved DNA left (log2) [9]	uncleaved DNA left (log2) [10]
GAGAGAA	0.0912	0.113	0.433	1.06	0.00745	1.11	-0.125	0.156	0.0628	0.0958
CCCCGGC	0.0325	-0.0117	0.212	0.305	0.147	-0.202	0.187	0.15	-0.0382	-0.068
CCCTCAT	-0.255	-0.268	-0.043	-0.821	-0.0977	-0.496	-0.5	-0.0244	-0.113	-0.104
AATGACG	-0.0493	-0.0534	-0.649	-0.704	-0.0194	-1.1	0.0729	0.0186	-0.00776	-0.0999
CCGCCCG	-0.111	-0.0417	-0.8	-0.149	-0.0606	-0.809	-0.0445	0.0702	-0.225	-0.223
CCGCCTT	-0.0595	-0.145	0.0116	-1.77	-0.125	-0.267	-0.226	-0.108	-0.144	-0.0988
CGACTGA	-0.00659	0.00387	-0.0184	0.62	-0.102	1.69	-0.0349	-0.0195	-0.152	0.0375
CACTAGT	-3.08	-3.24	-0.618	-2.19	-0.181	-0.957	-3.59	-0.00512	-0.0579	-0.103
TAGCCAA	-0.0364	-0.0535	0.113	-0.548	-0.109	-0.274	-0.209	0.0204	0.0879	0.083
CATGGTG	0.0383	0.0271	-0.541	-0.242	0.0692	-0.692	0.157	-0.0485	0.128	-0.0213
CCTGATT	0.174	-0.222	-0.152	-1.57	-0.163	-0.393	-2.13	0.125	0.0362	-0.133
CAGCGCC	-0.153	-0.153	-0.334	-0.436	-0.111	-0.765	-0.0219	-0.17	-0.107	-0.23
GAAGCAC	0.0287	0.0238	0.122	0.545	0.152	0.275	0.119	0.121	0.0977	0.103
CCCTATC	0.0101	0.00409	0.293	0.188	0.212	-0.462	-0.0776	-0.00331	0.226	0.12
AGCGGCC	0.0353	0.0316	0.102	0.631	0.0149	1.18	0.039	0.133	-0.00372	0.0371
GCGCACG	0.00391	-0.0743	-0.332	-0.233	0.0353	-0.456	0.0783	0.054	-0.0636	-0.137
CTAGATA	-0.0873	-0.027	-0.0627	-1.23	-0.0477	-0.293	0.0189	-0.0334	-0.0199	-0.0458
CTTGAGT	0.0755	0.00826	-0.559	-0.828	-0.00604	-1.02	-0.349	-0.0847	0.0275	-0.0815
ACTAGCT	-0.0501	-0.0856	-0.708	-1.24	-0.0134	-1.24	-0.272	-0.0775	-0.0551	-0.0949
GCACACA	-0.0778	0.000982	-0.00917	-0.403	-0.111	-0.116	-0.121	-0.0917	-0.0641	-0.041
GCGAATA	0.0164	0.137	-0.00374	0.379	0.00464	0.84	0.0751	0.0528	0.0883	0.055
ATTGAAT	-0.0446	-0.0834	0.155	0.239	0.0153	0.353	-0.515	0.0573	0.0442	0.0538
GAATTAG	0.0978	-0.0283	-0.719	-0.443	0.0614	-1.07	0.117	-0.0249	0.0554	0.014
CTGGACC	0.0123	-0.0187	0.156	0.721	-0.0714	0.7	-0.132	-0.151	-0.0796	0.069
GAGTCAT	0.00673	-0.00418	0.711	1.88	-0.0368	2.09	-3.14	0.00749	0.0696	0.158
TCAAAAA	-0.121	0.17	0.205	0.0273	0.103	-0.442	0.135	0.172	0.145	0.128
TTAGTTC	0.000431	-0.173	0.126	-0.981	0.0569	-0.302	-0.0939	-0.0562	0.0334	-0.138
GAAAGTC	0.0127	-0.0035	-0.203	-0.0145	0.0836	0.324	0.0577	0.0383	0.0356	0.0263
CTTTTAG	0.0546	-0.201	-0.9	-0.254	0.00272	-1.22	0.193	-0.0739	-0.089	-0.146
